We go through 57 sequences from the supplement of paper PMC11417369.

± gives the standard deviation of the averaged measurements. This is one part of the list.

In this assay the test system is PfAP2-EXP AP2 domain (GST-tagged). The assay can be described thus: gcPBM binding intensity (ln(normalized median fluorescence intensity)); higher = stronger DNA binding. In outline:
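Binding intensity is the highest Masliner-normalised natural-log median intensity over replicate spots in either probe orientation. To obtain it, GST-tagged P. falciparum DNA-binding domains made in E. coli were incubated for 1 h on an Agilent 4 × 180k array of primer-extended double-stranded 36-bp intergenic genomic probes plus negative controls. Detection used Alexa488 anti-GST antibody with scanning at 488 nm.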
“GTCAAATTTTTGTGCACACATATATAGTTATTATTA [CACACA_site2241]”: the “gcPBM binding intensity (ln)” value came to 9.32 ± 0.21.
For the sequence “TTTATATGTATTAAGTGTACACATATAATCTATCTT [XGTACX_site4922]”, the “gcPBM binding intensity (ln)” value stood at 8.55 ± 0.29.
In the case of “TAATAATATATATGAAGTACAATAACTTTTTGTTTT [XGTACX_site292]”, the “gcPBM binding intensity (ln)” value came to 8.21 ± 0.28.
Next, “TTACATATGGTTAGTAGTACATATATAAATGTAAAT [XGTACX_site7206]”: 8.62 ± 0.47.
On to “AAAAAAAAAAAAAAAACACACACATACACCCAAAAA [CACACA_site7910]”, for which the “gcPBM binding intensity (ln)” value came to 8.75 ± 0.085.
On to “AAAATACACGCATACACACACACACCCACCCATATA [CACACA_site639]”, for which the “gcPBM binding intensity (ln)” value was determined as 8.97 ± 0.67.
As for “CAAAGGGAAATTAACACACACATATATATATATATA [CACACA_site2453]”, the “gcPBM binding intensity (ln)” value stood at 10.1 ± 0.32.
For the sequence “GTATACACATATATATGTACTTAATTATTTTATGTC [XGTACX_site6707]”, the “gcPBM binding intensity (ln)” value is 8.99 ± 0.48.
“GTCATAAAAACATATACACACTTGAAATATAAAAAT [CACACA_site5315]”: the “gcPBM binding intensity (ln)” value turned out to be 8.54 ± 0.44.
With “AAACATGATTATTATAGTACAATTATAATTATTATA [XGTACX_site2590]”, the “gcPBM binding intensity (ln)” value came out at 8.14 ± 0.4.
As to “ATATATATATATATATGTACATATTTTTAATTATAA [XGTACX_site7444]”, the “gcPBM binding intensity (ln)” value stood at 9.86 ± 0.13.
For “TTGTTTCTTAAATTATTTATTTTATATTAAAAAAAA [XGTACX_negctrl_site224]”, the “gcPBM binding intensity (ln)” value amounted to 8.31 ± 0.46.
With “TCGTAGTTACTATGGCAAGAAAATAAACGGTCTTGT [GTGCAC_negctrl_site684]”, the “gcPBM binding intensity (ln)” value came out at 8.87 ± 0.42.
“ATTCGTAGTTTTATGAATTAATATAATAAAAATTAA [XGTACX_negctrl_site181]”: the “gcPBM binding intensity (ln)” value was 8.08 ± 0.48.
Next, “AAGAAAATGAAAAAGTAAAAACATATATTAAATATA [TGCATGCA_negctrl_site123]”: 8.51 ± 0.41.
As for TAAAAAACAAAACAGGTGCTATATAATTTTCATTTT, the “gcPBM binding intensity (ln)” value came to 8.55 ± 0.11.
“ATAGAATAATATTGTAGTACTAAAAATATTCATTTT [XGTACX_site6447]”: the “gcPBM binding intensity (ln)” value turned out to be 8.22 ± 0.3.
Take “TCTATATATAAATATAAATATATATATATAATGTTA [TGCATGCA_negctrl_site92]”: the “gcPBM binding intensity (ln)” value was determined as 7.88 ± 0.35.
On to “AAGTATATACATATATGTACACATTGTCAGATAGAA [XGTACX_site1236]”, for which the “gcPBM binding intensity (ln)” value turned out to be 8.66 ± 0.36.
In the case of “TCTTTTTGTTCGTGTACACACATGAAATTTATAAAA [CACACA_site1619]”, the “gcPBM binding intensity (ln)” value came to 8.91 ± 0.35.
For the sequence “ATTATAAATTAAAATACACACATATATACATAATAT [CACACA_site7337]”, the “gcPBM binding intensity (ln)” value was determined as 8.44 ± 0.49.
As for “ATATATATTTATATATATATATATATATATATGTAT [GTGCAC_negctrl_site220]”, the “gcPBM binding intensity (ln)” value was determined as 8.87 ± 0.085.
As for “AAAGAAAAAAAAAACACACACACACGCATTCAATAT [CACACA_site6169]”, the “gcPBM binding intensity (ln)” value amounted to 8.65 ± 0.59.
In the case of “CATGTAATATTAAACACACACTCATATAACACAATA [CACACA_site65]”, the “gcPBM binding intensity (ln)” value was 8.59 ± 0.4.
In the case of “TCTTAGATTATTTATTGTACTTATGCTTAAAAAATT [XGTACX_site3639]”, the “gcPBM binding intensity (ln)” value is 8.39 ± 0.31.
For the sequence “TAGTTATTTATATACACACACATACAGACAAATAAA [CACACA_site7577]”, the “gcPBM binding intensity (ln)” value was 8.98 ± 0.52.
Next, “GTCCAATAAGGAAGAGTGCAAAAATTAAATAATATA [GTGCAC_site9751]”: 8.76 ± 0.28; “ATATTTTCTTTTTAAAGTACATATTTGATTACAATA [XGTACX_site8414]”: 8.31 ± 0.28; “GAAAAAAAAGAAAAAACACACATATGATATATTTAT [CACACA_site1524]”: 8.26 ± 0.56.
In the case of “CTTTTTTTAATATGCACACATATATTTTATATATTA [CACACA_site2077]”, the “gcPBM binding intensity (ln)” value is 8.75 ± 0.18.
“ATATAGTATTAATTTGCATGTCATGTATTAGGTCGA [TGCATGCA_site540]”: the “gcPBM binding intensity (ln)” value is 8.78 ± 0.33.
As to “TATTCATTTATAAGCTGTACACATTAATTTGAGCTA [XGTACX_site3616]”, the “gcPBM binding intensity (ln)” value worked out at 8.65 ± 0.35.
As to “ATTAGGATATATTAAAGTACTAATATAATACATTTT [XGTACX_site7386]”, the “gcPBM binding intensity (ln)” value came to 8.16 ± 0.39.
Turning to “TTTTATATTTTTTGTGGTACATTTAGAGAACCAAAA [XGTACX_site1695]”, the “gcPBM binding intensity (ln)” value was 8.26 ± 0.34.
Turning to “TGTAAGTTGATATAATGTACATGTTTGATTTTTTTT [XGTACX_site7687]”, the “gcPBM binding intensity (ln)” value came to 8.35 ± 0.37.
For the sequence “AGATTTATACAAATATGTACACACTAAATATATATT [XGTACX_site864]”, the “gcPBM binding intensity (ln)” value is 8.57 ± 0.34.
Next, “AAAAAGGGTATTATTACACACACGTAAATATTAATA [CACACA_site101]”: 8.45 ± 0.4; TCTATTTTCTTATGAATGCACTAATTTATAAAACGT: 8.69 ± 0.18; “TAACTAAGGAATAATACACACAGAAATATAGATTTA [CACACA_site6293]”: 8.41 ± 0.42.
On to “CAACAAAAATTATTTACACACAAAAGGCAAGGAAAT [CACACA_site1971]”, for which the “gcPBM binding intensity (ln)” value worked out at 9.02 ± 0.49.
Take “TTTATAAACAAATGAACACACAAACATATATATATA [CACACA_site5713]”: the “gcPBM binding intensity (ln)” value worked out at 9.86 ± 0.14.
Consider “TTTTTTCATTAGAAAACATGCAAATGTTTTTCACTT [TGCATGCA_site127]”, for which the “gcPBM binding intensity (ln)” value stood at 8.3 ± 0.38.
Turning to “TTTATTTTATCATTTGCACACGCACCCAGACATAAA [CACACA_site4347]”, the “gcPBM binding intensity (ln)” value is 9.03 ± 0.014.
On to “CTATTATAATATTTTACACACCATGTAAGATATATA [CACACA_site7492]”, for which the “gcPBM binding intensity (ln)” value came to 8.46 ± 0.35.
Regarding “CTCTTTTTTTGCAAAAGTACAAATGGGGATATATTT [XGTACX_site5813]”, the “gcPBM binding intensity (ln)” value turned out to be 8.99 ± 0.38.
Take “ATATATTTGATTTACACACTTACAATGTATATAAAT [CACACA_site2993]”: the “gcPBM binding intensity (ln)” value turned out to be 8.56 ± 0.48.
Regarding “AAAGAAATAAGGTGCACACATATACAGATATATATA [CACACA_site4399]”, the “gcPBM binding intensity (ln)” value turned out to be 9.125 ± 0.078.
With “TTGTAAAAATTAATACATATATATATATATATATAT [CACACA_negctrl_site6]”, the “gcPBM binding intensity (ln)” value amounted to 10 ± 0.56.
Consider “ACTCAAACCTTTAGAGTGCAAAAAAAAAAAAAAAAA [GTGCAC_site9952]”, for which the “gcPBM binding intensity (ln)” value was 8.27 ± 0.39.
Turning to “TTACATATTTTTTAACGTACATAAATATATATGTAT [XGTACX_site8406]”, the “gcPBM binding intensity (ln)” value is 8.51 ± 0.27.
As to “TTAAATAAAAAAATAACACACATATAAATATATATG [CACACA_site3175]”, the “gcPBM binding intensity (ln)” value amounted to 8.2 ± 0.34.
As to “ATAATTATCATAGGATGTACATATTTATTTTGTATA [XGTACX_site7797]”, the “gcPBM binding intensity (ln)” value stood at 8.46 ± 0.35.
On to “ATATGTTAAATTATTCGTACGTAAAAAAAAATGGAT [XGTACX_site3465]”, for which the “gcPBM binding intensity (ln)” value is 8.96 ± 0.47.
“TTCCTAAGAATAATCAGTACACATAAAAAGAACATA [XGTACX_site7861]”: the “gcPBM binding intensity (ln)” value came to 8.71 ± 0.29.
Consider “ACTATATATTTAATATGTACACATATTTCTGTCGAT [XGTACX_site6878]”, for which the “gcPBM binding intensity (ln)” value turned out to be 8.68 ± 0.29.
“TAATTTCATCATATTTGTTCCTTCTCAAAATTTTTT [CACACA_negctrl_site217]”: the “gcPBM binding intensity (ln)” value is 8.64 ± 0.64.
As to “GCATTATTTACCACAACACACAAATATTTACCAATC [CACACA_site2669]”, the “gcPBM binding intensity (ln)” value was determined as 9.04 ± 0.27.
